Measurements: the RNAGym collection of RNA variant scans (doi:10.1093/nar/gkz1192)
The source gives no read counts; variants with many changes may rest on few reads.

B1: CPEB3 Ribozyme (parent)
chain: UAACAGGGGGCCACAGCAGAAGCGUUCACGUCGCAGCCCCUGUCAGAUUCUGGUGAAUCUGCGAAUUCUGCUGUAUAUCUC

Variants of: B1
Assay: self-cleavage, relative activity (ratio to wild type); higher = more cleavage; in vitro, sequencing
Summary of the method: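 Libraries of CPEB3 self-cleaving ribozyme mutants came from rounds of error-prone PCR and carried barcodes, which DNA sequencing matched to variants. In vitro transcription used T7 RNA polymerase at 37°C for 5 hours, with a further 15 min in DNase I before EDTA stopped the reaction; the ribozymes cleaved during both steps. The RNA was reverse transcribed with template switching and sequenced on Illumina. Relative activity is the cleaved/total read fraction of a variant divided by that of the unmutated ribozyme, averaged over three batches with at least 5 reads.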
With A13U A20U C32A U60A U80C the self-cleavage was 0.06.
A13U A20U U26A showed a self-cleavage of 0.11.
A13U A20U U43A U78C gave a self-cleavage of 0.12.
Variant A13U A20U U54C G61U A65G U69A has a self-cleavage of 0.13.
In the case of A13U A21G A28G C68A, the self-cleavage is reported as 0.14.
Variant A13U A21G A35U U60C U72C A77G has a self-cleavage of 0.05.
Variant A13U A21G A45U A56G has a self-cleavage of 0.4.
A13U A21G C34U U49C U58G showed a self-cleavage of 0.05.
In the case of A13U A21G C68G, the self-cleavage is reported as 0.19.
Variant A13U A21G U25C U60A A64G has a self-cleavage of 0.52.
In the case of A13U A21G U26C U51A U58C U69C, the self-cleavage is reported as 0.14.
Work on A13U A21G U49C U51A U58C C81A yielded a self-cleavage of 0.12.
With A13U A21G U49C U54A U74C A75U the self-cleavage was 0.18.
Variant A13U A21G U54C C62G U74A has a self-cleavage of 0.04.
Variant A13U A21G U69C has a self-cleavage of 0.15.
In the case of A13U A21U U25A A35C U41C, the self-cleavage is reported as 0.1.
A13U A21U U26A U58C A64G U80C gave a self-cleavage of 0.06.
Variant A13U A28C U43C has a self-cleavage of 0.33.
Work on A13U A28G A45G yielded a self-cleavage of 0.54.
With A13U A28G A56G U67A the self-cleavage was 0.13.
Variant A13U A28G A64G C81U has a self-cleavage of 0.84.
With A13U A28G C38A the self-cleavage was 0.09.
A13U A28G C38U A57G G63U U72A A77G showed a self-cleavage of 0.32.
A13U A28G U41A U72A showed a self-cleavage of 0.16.
A13U A28G U43C gave a self-cleavage of 0.3.
A13U A28G U43C C62U U72C gave a self-cleavage of 0.08.
A13U A28G U51A C62U U72C showed a self-cleavage of 0.15.
In the case of A13U A28U A45U U66C U76A U78G, the self-cleavage is reported as 0.11.
A13U A28U A64G C68G showed a self-cleavage of 0.15.
In the case of A13U A35G A45G G46A A64G U74C, the self-cleavage is reported as 0.16.
A13U A35G A47G A64G U80C gave a self-cleavage of 1.3.
In the case of A13U A35G A57G U67C, the self-cleavage is reported as 0.79.
A13U A35G C39U gave a self-cleavage of 1.28.
In the case of A13U A35G U41C U48C A56G U74C, the self-cleavage is reported as 1.09.
Work on A13U A35U A65G U69C yielded a self-cleavage of 0.05.
For A13U A35U U60A A75G, the self-cleavage was 0.16.
In the case of A13U A45C A57G, the self-cleavage is reported as 0.11.
For A13U A45G A56G A64G, the self-cleavage was 0.54.
Work on A13U A45G A57G A75U yielded a self-cleavage of 0.94.
Work on A13U A45G C62A yielded a self-cleavage of 0.23.
In the case of A13U A45G U51G U74A, the self-cleavage is reported as 1.1.
In the case of A13U A45G U67A A75U, the self-cleavage is reported as 0.57.
Variant A13U A47G G70A U76A A77G has a self-cleavage of 0.76.
For A13U A47U A56U U58A U74A, the self-cleavage was 0.75.
In the case of A13U A56G A64C, the self-cleavage is reported as 0.24.
A13U A56G U74C gave a self-cleavage of 1.24.
For A13U A57G U60C, the self-cleavage was 0.41.
With A13U A57G U60C U67C the self-cleavage was 0.24.
A13U A57G U60C U78C showed a self-cleavage of 0.59.
Variant A13U A64U U80C has a self-cleavage of 0.57.
Variant A13U A65G U67C U78A has a self-cleavage of 0.3.
Work on A13U A65G U76A U80C yielded a self-cleavage of 0.7.
A13U A65U U80A showed a self-cleavage of 0.22.
Variant A13U C17A U43A U72C has a self-cleavage of 0.58.
A13U C17U C23U U31A U41C showed a self-cleavage of 0.08.
A13U C17U U25A A65G gave a self-cleavage of 0.15.
In the case of A13U C17U U31C, the self-cleavage is reported as 0.52.
In the case of A13U C17U U51A, the self-cleavage is reported as 1.1.
In the case of A13U C23A C27A C39A G63A A64U U72C, the self-cleavage is reported as 0.04.
In the case of A13U C23A C38G U51C A65G A77G, the self-cleavage is reported as 0.06.
Work on A13U C23A U60A U78C yielded a self-cleavage of 0.13.
A13U C23A U66A U67A showed a self-cleavage of 0.14.
With A13U C23G U26C C39U U69G the self-cleavage was 0.05.
Work on A13U C23G U76A U78C yielded a self-cleavage of 0.06.
Work on A13U C23U U67C yielded a self-cleavage of 0.38.
With A13U C29U U67A A77G the self-cleavage was 0.26.
A13U C32A G36A A45G U72C gave a self-cleavage of 0.08.
A13U C32U A65G showed a self-cleavage of 0.1.
A13U C32U U41A U54C U72C showed a self-cleavage of 0.17.
In the case of A13U C34U U41C U49C U51A U80C, the self-cleavage is reported as 0.13.
Variant A13U C34U U67C has a self-cleavage of 0.17.
For A13U C37A A45U U54C, the self-cleavage was 0.03.
In the case of A13U C38U G55U A56U, the self-cleavage is reported as 0.22.
In the case of A13U C39G U43C U49C U74A, the self-cleavage is reported as 0.08.
For A13U C71U U80C, the self-cleavage was 1.25.
Work on A13U G16U A21G U31C U69C U72C yielded a self-cleavage of 0.16.
Work on A13U G16U U25C U51G yielded a self-cleavage of 0.08.
Variant A13U G19A U26A has a self-cleavage of 0.08.
A13U G19A U26A U69C showed a self-cleavage of 0.12.
Variant A13U G19U U25C U41C U67C has a self-cleavage of 0.06.
A13U G22A U26C U72A showed a self-cleavage of 0.13.
With A13U G22C G46U U58C the self-cleavage was 0.1.
With A13U G22U A45G U54C A75U the self-cleavage was 0.09.
In the case of A13U G22U U60A U72A, the self-cleavage is reported as 0.05.
For A13U G24A A35U U49A A65G U74C A77G, the self-cleavage was 0.04.
For A13U G24A C38U A57G, the self-cleavage was 0.11.
A13U G24A U26C A28G U60A G63A U69A gave a self-cleavage of 0.06.
A13U G24A U31G C40G A57G A64U U66C gave a self-cleavage of 0.07.
A13U G24U A64G gave a self-cleavage of 0.08.
Variant A13U G30A C50G C62G has a self-cleavage of 0.09.
With A13U G30A U31C A56G the self-cleavage was 0.07.
In the case of A13U G30A U66G, the self-cleavage is reported as 0.17.
With A13U G30U U54A the self-cleavage was 0.1.
A13U G33A A47G A64G C68G U78A showed a self-cleavage of 0.11.
A13U G33A A56U U58A U69C U72C showed a self-cleavage of 0.07.
For A13U G33U A56G, the self-cleavage was 0.23.
In the case of A13U G36A U41C U51A, the self-cleavage is reported as 0.28.
A13U G36C G42A showed a self-cleavage of 0.23.
A13U G36C U67A showed a self-cleavage of 0.34.
In the case of A13U G61C A64C, the self-cleavage is reported as 0.23.
For A13U G61U U78C, the self-cleavage was 0.14.
A13U G63C A65G U66C gave a self-cleavage of 0.2.
With A13U U25A A56G U69C U80C the self-cleavage was 0.34.
For A13U U25A C37A U41C U43A U80C, the self-cleavage was 0.21.
With A13U U25A U26A U51C the self-cleavage was 0.18.
A13U U25A U58C U60A A64G U78C showed a self-cleavage of 0.08.
A13U U25C A28G A45G U67C showed a self-cleavage of 0.21.
A13U U25C A28G U48A U72A showed a self-cleavage of 0.07.
Work on A13U U25C A28G U58C A64G U69C U80A yielded a self-cleavage of 0.06.
Variant A13U U25C A28U A47G has a self-cleavage of 0.09.
A13U U25C A35G U66G gave a self-cleavage of 0.09.
A13U U25C A56G C71G C81U gave a self-cleavage of 0.04.
A13U U25C A75G gave a self-cleavage of 0.1.
Variant A13U U25C C71G has a self-cleavage of 0.04.
Work on A13U U25C G33A U51C A77G yielded a self-cleavage of 0.06.
In the case of A13U U25C U26A U41C U76A, the self-cleavage is reported as 0.29.
A13U U25C U31A G52A A65U A77G showed a self-cleavage of 0.08.
For A13U U25C U31C U48C, the self-cleavage was 0.07.
A13U U25C U60C showed a self-cleavage of 0.1.
A13U U25C U69C U72C showed a self-cleavage of 0.13.
A13U U25G A35G showed a self-cleavage of 0.89.
A13U U25G C27U A56G A65G U67C U76C gave a self-cleavage of 0.05.
In the case of A13U U26A A64U A75U, the self-cleavage is reported as 0.25.
In the case of A13U U26A U48C U76C, the self-cleavage is reported as 0.81.
Variant A13U U26C A28U U31C A56G has a self-cleavage of 0.03.
With A13U U26C A35G G42A A56G U72C U78A the self-cleavage was 0.13.
Work on A13U U26C A45G A56G A64G yielded a self-cleavage of 0.37.
Work on A13U U26C A45U yielded a self-cleavage of 0.3.
In the case of A13U U26C A56G A64U A65G, the self-cleavage is reported as 0.08.
With A13U U26C A77G U78C the self-cleavage was 0.29.
In the case of A13U U26C G52A U78C, the self-cleavage is reported as 0.63.
Work on A13U U26C U31C A45U U69C U72C yielded a self-cleavage of 0.06.
Variant A13U U26C U41A U80C has a self-cleavage of 0.09.
For A13U U26C U41C U49C A57G, the self-cleavage was 0.07.
With A13U U26C U43C the self-cleavage was 0.75.
With A13U U26C U43C U49C U80A the self-cleavage was 0.21.
Variant A13U U26C U43C U54C A56G A65G U80C has a self-cleavage of 0.16.
A13U U26C U67C gave a self-cleavage of 0.16.
With A13U U26C U69C C71U A75G the self-cleavage was 0.09.
A13U U26C U80A showed a self-cleavage of 0.67.
A13U U26G A28G U43C showed a self-cleavage of 0.57.
Variant A13U U26G A47G U54C A65G U80C has a self-cleavage of 0.08.
Work on A13U U31A A65U U69C U76A yielded a self-cleavage of 0.1.
Variant A13U U31A U41A U72C has a self-cleavage of 0.21.
Work on A13U U31A U41C A57G U72C yielded a self-cleavage of 0.26.
A13U U31A U49C showed a self-cleavage of 0.26.
For A13U U31A U51A U54C U67A, the self-cleavage was 0.2.
A13U U31C A35U C40U A45U gave a self-cleavage of 0.07.
With A13U U31C A45U A56G the self-cleavage was 0.09.
For A13U U31C A47G U74C, the self-cleavage was 1.23.
A13U U31C G53C U69C gave a self-cleavage of 0.2.
A13U U31C U51A A64G U66C gave a self-cleavage of 0.14.
A13U U41C A45G U67C gave a self-cleavage of 0.15.
A13U U41C A77G showed a self-cleavage of 1.2.
With A13U U41C U49A A64G U67C the self-cleavage was 0.25.
A13U U41C U51C C62U showed a self-cleavage of 0.25.
For A13U U41C U51C U60C, the self-cleavage was 0.41.
Work on A13U U41C U54G A64G A65G U72G yielded a self-cleavage of 0.19.
A13U U41C U72A U80C showed a self-cleavage of 1.2.
For A13U U41C U72C, the self-cleavage was 1.15.
Work on A13U U41G A47U U48A yielded a self-cleavage of 0.12.
With A13U U43C A56U A64G the self-cleavage was 0.12.
With A13U U43C U58C A65U the self-cleavage was 0.07.
In the case of A13U U43C U66C, the self-cleavage is reported as 0.18.
Work on A13U U48C A57C U78C yielded a self-cleavage of 0.92.
Variant A13U U48C A77G has a self-cleavage of 1.01.
In the case of A13U U48C U58C, the self-cleavage is reported as 0.45.
